Like-named read-outs stand apart in the source and are kept apart here.
System: PPO resistant common waterhemp (Amaranthus tamariscinus, AMATA) that contains the ΔG210 mutation
Details: for activity in words on PPO resistant common waterhemp that contains the ΔG210 mutation: summary of Example 4 table; for Weed control (%) of PPO resistant AMATA that contains the ΔG210 mutation: field, 14 days after treatment

CS(=O)(=O)NC(=O)c1cc(Oc2ccc(C(F)(F)F)cc2Cl)ccc1[N+](=O)[O-] [Fomesafen, fomesafen]
activity in words on PPO resistant common waterhemp that contains the ΔG210 mutation: only very limited herbicidal effect | Weed control (%) of PPO resistant AMATA that contains the ΔG210 mutation (use rate 420 g/ha): 5% | Weed control (%) of PPO resistant AMATA that contains the ΔG210 mutation (use rate 840 g/ha): 8%

Cc1nn(-c2cc(NS(C)(=O)=O)c(Cl)cc2Cl)c(=O)n1C(F)F [Sulfentrazone, sulfentrazone]
activity in words on PPO resistant common waterhemp that contains the ΔG210 mutation: only very limited herbicidal effect | Weed control (%) of PPO resistant AMATA that contains the ΔG210 mutation (use rate 280 g/ha): 18% | Weed control (%) of PPO resistant AMATA that contains the ΔG210 mutation (use rate 560 g/ha): 23%

C#CCN1C(=O)COc2cc(F)c(N3C(=O)C4=C(CCCC4)C3=O)cc21 [Flumioxazin, flumioxazin]
activity in words on PPO resistant common waterhemp that contains the ΔG210 mutation: only very limited herbicidal effect | Weed control (%) of PPO resistant AMATA that contains the ΔG210 mutation (use rate 71.5 g/ha): 20% | Weed control (%) of PPO resistant AMATA that contains the ΔG210 mutation (use rate 143 g/ha): 32%

C#CCN1C(=O)C(F)(F)Oc2cc(F)c(-n3c(=O)n(C)c(=S)n(C)c3=O)cc21 [I.a.35]
activity in words on PPO resistant common waterhemp that contains the ΔG210 mutation: very good activity | Weed control (%) of PPO resistant AMATA that contains the ΔG210 mutation (use rate 50 g/ha): 79% | Weed control (%) of PPO resistant AMATA that contains the ΔG210 mutation (use rate 100 g/ha): 85%

Source: patent US10897903B2, “Method for controlling PPO resistant weeds” (BASF SE, priority 2016, dated 2021)
